Some of the results follow.
Experiments:
HSkMC = human skeletal muscle cells; assay: cytotoxicity call (relative viability < 0.9); settings: 10 µM
HepG2 = assay: cytotoxicity call (relative viability < 0.9); settings: 10 µM
S. aureus RN4220 = assay: growth inhibition call (relative growth <= 0.2); settings: 50 µM

SMILES | cytotoxicity call (HSkMC) | cytotoxicity call (HepG2) | growth inhibition call (S. aureus RN4220)
Cc1cc(C(=O)Nc2cccc3c2O[C@@H](CN(C)S(=O)(=O)c2cccs2)[C@@H](C)CN([C@H](C)CO)C3=O)n(C)n1 | inactive | inactive | inactive
C[C@@H]1CCCCO[C@H](CN(C)C(=O)Nc2ccc3c(c2)OCO3)[C@H](C)CN([C@@H](C)CO)C(=O)c2cc(NC(=O)NC3CCCCC3)ccc2O1 | inactive | inactive | inactive
CCCCN(CCCC)CC(O)c1cc(Cl)cc2c1-c1ccc(Cl)cc1C2=Cc1ccc(Cl)cc1 (stereo not drawn) | inactive | active | inactive
COC(=O)[C@@H](NC(=O)Cn1cc(COc2ccccc2/C=C(C)/C=C/C(=O)NO)nn1)c1ccccc1 | inactive | active | inactive
C[C@@H]1CCCCO[C@@H](CN(C)S(C)(=O)=O)[C@@H](C)CN([C@H](C)CO)C(=O)c2cc(NC(=O)CCCN(C)C)ccc2O1 | inactive | inactive | inactive
O=C(CCCCCNC(=O)OCc1ccc(CO[C@@H]2C[C@H](c3ccc(C(F)(F)F)cc3)C=C(C(=O)N3CCCCCCC3)O2)cc1)NO | inactive | inactive | inactive
C=C/C=C/[C@H]1C(=C)CN([C@H](Cc2ccc(-n3cc(CCC(=O)NO)nn3)cc2)C(=O)OC)[C@@H]1[C@H](O)Cc1ccccc1 | inactive | inactive | inactive
C[C@@H]1CN([C@H](C)CO)C(=O)c2cc(NS(=O)(=O)c3ccc(F)cc3)ccc2O[C@@H](C)CCCCO[C@H]1CN(C)C(=O)Nc1ccc(F)cc1 | inactive | inactive | inactive
COc1ccc(NC(=O)N(C)C[C@@H]2Oc3ccc(NS(=O)(=O)c4c(C)noc4C)cc3CC(=O)N([C@@H](C)CO)C[C@H]2C)cc1 | inactive | inactive | inactive
Cc1noc(C)c1NC(=O)N(C)C[C@H]1OCCCC[C@H](C)Oc2ccc(NC(=O)Nc3ccccc3)cc2C(=O)N([C@H](C)CO)C[C@@H]1C | inactive | inactive | inactive
Cc1noc(C)c1S(=O)(=O)Nc1ccc2c(c1)C(=O)N([C@@H](C)CO)C[C@H](C)[C@H](CN(C)S(=O)(=O)c1cccs1)O2 | inactive | inactive | inactive
C[C@@H]1CN([C@H](C)CO)S(=O)(=O)c2ccc(-c3cccnc3)cc2O[C@H]1CN(C)C(=O)c1cccc(F)c1 | inactive | inactive | inactive
Nc1ccc(S(=O)(=O)[O-])cc1.Nc1ccc(S(=O)(=O)[O-])cc1.[Zn+2] | inactive | inactive | inactive
C[C@H](CO)N1C[C@H](C)[C@@H](CN(C)Cc2ccc(Cl)c(Cl)c2)Oc2c(NC(=O)c3nc4ccccc4s3)cccc2C1=O | inactive | inactive | inactive
Cc1ccc(-c2c[nH]c(=S)[nH]2)cc1 | inactive | inactive | inactive
C[C@H]1CN([C@@H](C)CO)C(=O)c2cc(NC(=O)Nc3ccc4c(c3)OCO4)ccc2O[C@H]1CN(C)C(=O)Nc1ccc(C(F)(F)F)cc1 | inactive | inactive | inactive
CC(=O)N1CCCN(S(=O)(=O)N2CCOCC2)CC1 | inactive | inactive | inactive
C[C@@H]1CN([C@@H](C)CO)C(=O)c2cc(C#CC3CCCC3)cnc2O[C@H]1CN(C)C(=O)Cc1ccccn1 | inactive | inactive | inactive
CCCCCc1ccccn1 | inactive | inactive | inactive

SMILES | cytotoxicity call (HSkMC) | cytotoxicity call (HepG2) | growth inhibition call (S. aureus RN4220)
C[C@@H]1CN([C@@H](C)CO)S(=O)(=O)c2ccc(C3=CCCCC3)cc2O[C@@H]1CN(C)S(=O)(=O)c1cn(C)cn1 | inactive | inactive | inactive
c1ccc(C2=Nc3ccccc3N=C(c3ccccc3)C2)cc1 | inactive | inactive | inactive
COCCNC(=O)C[C@H]1CC[C@H]2[C@@H](COC[C@H](O)CN2S(=O)(=O)c2ccccc2C)O1 | inactive | inactive | inactive
Nc1nonc1N1CCCCC1 | inactive | inactive | inactive
C[C@@H]1CCCCO[C@H](CN(C)C(=O)Nc2ccc3c(c2)OCO3)[C@@H](C)CN([C@H](C)CO)C(=O)c2cc(NC(=O)Nc3ccc(C(F)(F)F)cc3)ccc2O1 | inactive | inactive | inactive
CC(C)CC#Cc1cnc2c(c1)C(=O)N([C@H](C)CO)C[C@@H](C)[C@H](CN(C)S(=O)(=O)c1cn(C)cn1)O2 | inactive | inactive | inactive
C[C@H](O)C#Cc1cnc2c(c1)C(=O)N([C@@H](C)CO)C[C@@H](C)[C@@H](CN(C)C(=O)Nc1ccc(C(F)(F)F)cc1)O2 | inactive | inactive | inactive
C[C@@H]1CN([C@H](C)CO)C(=O)c2cc(NC(=O)CCCCCC(=O)Nc3ccccc3N)ccc2O[C@H]1CN(C)CC1CCCCC1 | inactive | inactive | inactive
C[C@@H]1CCCCO[C@H](CN(C)S(=O)(=O)c2cccs2)[C@H](C)CN([C@H](C)CO)C(=O)c2cc(NS(=O)(=O)c3ccc(Cl)cc3)ccc2O1 | inactive | inactive | inactive
Cc1ccc(S(=O)(=O)N(C)C[C@@H]2Oc3ccc(NC(=O)Nc4cccc5ccccc45)cc3C(=O)N([C@@H](C)CO)C[C@@H]2C)cc1 | inactive | inactive | inactive
O=C(C[C@@H]1CC[C@@H]2[C@H](COC[C@H](O)CN2S(=O)(=O)c2ccccc2F)O1)NCc1ccccc1Cl | inactive | inactive | inactive
C[C@@H]1CCCCO[C@H](CN(C)C(=O)Nc2ccccc2)[C@H](C)CN([C@@H](C)CO)C(=O)c2cc(NC(=O)c3ccncc3)ccc2O1 | inactive | inactive | inactive
COCC(=O)N1C[C@@H](C)[C@H](OC)CN(C)C(=O)c2cc(NC(=O)c3cc(C)on3)ccc2OC[C@@H]1C | inactive | inactive | inactive
C[C@@H]1CCCCO[C@H](CN(C)Cc2ccc(C(F)(F)F)cc2)[C@@H](C)CN([C@@H](C)CO)C(=O)c2cc(NC(=O)Nc3cccc4ccccc34)ccc2O1 | inactive | inactive | inactive
C[C@@H]1CN([C@H](C)CO)C(=O)c2cc(C#CC3(O)CCCC3)cnc2O[C@@H]1CN(C)S(=O)(=O)c1cccc(F)c1 | inactive | inactive | inactive
C[C@H]1CCCCO[C@@H](CN(C)C(=O)Cc2ccccc2)[C@@H](C)CN([C@@H](C)CO)C(=O)c2cc(NC(=O)c3ccccc3)ccc2O1 | inactive | inactive | inactive
CC(C)[Si]1(C(C)C)OCc2cc(CCCc3cc4c(c(CCc5ccccc5)n3)[Si](C(C)C)(C(C)C)OC4)nc(CCc3ccccc3)c21 | inactive | inactive | inactive
Cc1cn2c(=O)c(C(=O)O)cnc2s1 | inactive | inactive | inactive
COCCOC(=O)N1C(=O)[C@@]2(c3cc(C#Cc4ccc(OC)cc4)ccc31)[C@H](C(N)=O)[C@H]1C(=O)O[C@H](c3ccccc3)[C@H](c3ccccc3)N1[C@@H]2c1ccccc1OCCO | inactive | inactive | inactive

SMILES | cytotoxicity call (HSkMC) | cytotoxicity call (HepG2) | growth inhibition call (S. aureus RN4220)
CN1CCN(C(=O)C[C@H]2CC[C@H]3[C@@H](COc4ccc(NC(=O)c5cccs5)cc4C(=O)N3C)O2)CC1 | inactive | inactive | inactive
Cc1ccc(S(=O)(=O)N(C)C[C@@H]2OCCCC[C@@H](C)Oc3ccc(NC(=O)c4ccccc4)cc3C(=O)N([C@@H](C)CO)C[C@@H]2C)cc1 | inactive | inactive | inactive
COCC(=O)N1C[C@H](C)[C@H](OC)CN(C)C(=O)c2cc(NC(=O)Nc3cccc(F)c3)ccc2OC[C@H]1C | inactive | inactive | inactive
CC(C)CCC[C@@H](C)N | inactive | inactive | inactive
CC[C@H]1OC(=O)C[C@@H](O)[C@H](C)[C@@H](O[C@@H]2O[C@H](C)C[C@H](N(C)C)[C@H]2O)[C@@H](CC=O)C[C@@H](C)C(=O)/C=C/[C@]2(C)O[C@H]2[C@@H]1C | inactive | inactive | active
C[C@H]1CN([C@@H](C)CO)S(=O)(=O)c2ccc(C#CCN(C)C)cc2O[C@@H]1CN(C)Cc1ccc(F)cc1 | inactive | inactive | inactive
COc1ccc(NC(=O)Nc2ccc3c(c2)C(=O)N([C@H](C)CO)C[C@H](C)[C@@H](CN(C)S(=O)(=O)c2c(C)noc2C)O3)cc1 | inactive | inactive | inactive
C[C@H]1CN([C@@H](C)CO)C(=O)c2cc(-c3cccc(C(=O)N(C)C)c3)cnc2O[C@H]1CN(C)S(=O)(=O)c1cccc(F)c1 | inactive | inactive | inactive
CCCN1C[C@@H](C)[C@@H](OC)CN(C)C(=O)c2ccc(NS(=O)(=O)c3cn(C)cn3)cc2OC[C@H]1C | inactive | inactive | inactive
CN1C(=O)C[C@H](C(=O)O)[C@H]1c1cccnc1 | inactive | inactive | inactive
NNC(=O)c1ccc(OC[C@@H](O)CO)cc1O | inactive | inactive | inactive
C[C@@H]1CCCCO[C@@H](CN(C)C(=O)c2ccccc2)[C@H](C)CN([C@@H](C)CO)C(=O)c2cc(NC(=O)Nc3ccc4c(c3)OCO4)ccc2O1 | inactive | inactive | inactive
CN(C)CCC=C1c2ccccc2CCc2ccccc21.Cl | inactive | active | inactive
O=C(CCCCCNC(=O)OCc1ccc(CO[C@@H]2C[C@H](c3csc4ccccc34)C=C(C(=O)N3CCN(Cc4ccccc4)CC3)O2)cc1)NO | inactive | inactive | inactive
Nn1nnc2ccccc21 | inactive | inactive | inactive
Cc1ccc(S(=O)(=O)N(C)C[C@H]2Oc3c(NC(=O)C4CCOCC4)cccc3C(=O)N([C@H](C)CO)C[C@@H]2C)cc1 | inactive | inactive | inactive
C[C@H](CO)N1C[C@H](C)[C@@H](CN(C)Cc2ccc(C(=O)Nc3ccccc3N)cc2)Oc2ccc(NS(C)(=O)=O)cc2CC1=O | inactive | inactive | inactive
CN(/N=C/c1ccncc1)C1=NCCN1 | inactive | inactive | inactive
